Source: the supplement of paper PMC10369915
This is one part of the list. Rule as the data show it: active = 3.2 or more and inactive = the rest. Most of these values are background signal.

B1: LRCH3_Y354 (peptide)
chain: RRESQYQENRG
B2: LMNA_Y45_R50P (peptide)
chain: DRLAVYIDRVP
B3: LMNA_Y481_R482W (peptide)
chain: DPLLTYWFPPK
B4: LLGL2_Y40 (peptide)
chain: PSALGYSPSLR
B5: LILRB4_Y360_K362E (peptide)
chain: PQAVTYAEVKH
B6: LITAF_Y23 (peptide)
chain: SAPPSYEETVA
B7: LGR4_Y848_YF (peptide)
chain: FDCGMYSHLQG
B8: LIG3_Y767 (peptide)
chain: KVNKIYYPDFI
B9: LRFN1_Y458_Q455R (peptide)
chain: MYRVQYNSSVD
B10: LMNA_Y646_R644C (peptide)
chain: LVTCSYLLGNS
B11: LPP_Y346_Y346H (peptide)
chain: NPPGMHPVTGP
B12: LMNA_Y81_L85R (peptide)
chain: GIKAAYEAERG
B13: LPL_Y329_M328T (peptide)
chain: RSSKTYLKTRS
B14: LMNA_Y259 (peptide)
chain: DQVEQYKKELE
B15: LMNA_Y376_R377H (peptide)
chain: MEIHAYHKLLE
B16: LRFN1_Y454_YF (peptide)
chain: PGIRMYQVQFN
B17: LGI1_Y21 (peptide)
chain: LKRIAYFLCLL
B18: LRFN1_Y454_Q455R_YF (peptide)
chain: PGIRMYRVQFN
B19: LMNA_Y481_K486N (peptide)
chain: DPLLTYRFPPN
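Also: displayed peptides selected on beads carrying the immobilized SH2 domain, with library peptides lacking any tyrosine serving as negative controls.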

What follows are binders tested against SHP2 C-SH2 domain E139D (assay: enrichment score (SH2-bound / input frequency) (ratio); bacterial display of known human phosphotyrosine sites (pTyr-Var adds point mutants) read by sequencing; higher = stronger binding; tyrosines were phosphorylated by kinases first). Settings: peptide library: pTyr-Var.
With B1 the enrichment score was inactive: 0.278.
In the case of B2, the enrichment score is reported as inactive: 1.
In the case of B3, the enrichment score is reported as inactive: 1.01.
For B4, the enrichment score was inactive: 0.673.
With B5 the enrichment score was inactive: 2.64.
With B6 the enrichment score was inactive: 0.451.
B7 was tested, and the enrichment score was inactive: 1.47.
In the case of B8, the enrichment score is reported as inactive: 1.23.
With B9 the enrichment score was inactive: 1.09.
For B10, the enrichment score was inactive: 0.724.
B11 was tested, and the enrichment score was inactive: 0.481.
B12 was tested, and the enrichment score was inactive: 0.657.
With B13 the enrichment score was inactive: 0.598.
In the case of B14, the enrichment score is reported as inactive: 0.773.
In the case of B15, the enrichment score is reported as inactive: 1.96.
In the case of B16, the enrichment score is reported as inactive: 3.17.
With B17 the enrichment score was active: 4.66.
In the case of B18, the enrichment score is reported as inactive: 0.407.
For B19, the enrichment score was inactive: 1.03.

The binders below were run against SHP2 C-SH2 domain wild-type in the same assay as above. Settings: peptide library: pTyr-Var.
For B1, the enrichment score was inactive: 0.406.
B2 was tested, and the enrichment score was inactive: 0.845.
In the case of B3, the enrichment score is reported as inactive: 1.05.
With B4 the enrichment score was inactive: 0.46.
With B5 the enrichment score was active: 5.
With B6 the enrichment score was inactive: 0.583.
B7 was tested, and the enrichment score was inactive: 1.17.
B8 was tested, and the enrichment score was inactive: 1.02.
With B9 the enrichment score was inactive: 0.881.
B10 was tested, and the enrichment score was inactive: 1.07.
For B11, the enrichment score was inactive: 0.455.
With B12 the enrichment score was inactive: 0.6.
In the case of B13, the enrichment score is reported as inactive: 0.482.
For B14, the enrichment score was inactive: 0.623.
In the case of B15, the enrichment score is reported as inactive: 1.31.
In the case of B16, the enrichment score is reported as inactive: 2.37.
With B17 the enrichment score was active: 5.05.
With B18 the enrichment score was inactive: 0.33.
With B19 the enrichment score was inactive: 0.687.

What follows are binders tested against SHP2 N-SH2 domain L43F in the same assay as above. Settings: peptide library: pTyr-Var.
For B1, the enrichment score was inactive: 0.301.
With B2 the enrichment score was inactive: 0.853.
For B3, the enrichment score was inactive: 1.27.
B4 was tested, and the enrichment score was inactive: 0.533.
In the case of B5, the enrichment score is reported as inactive: 2.54.
In the case of B6, the enrichment score is reported as inactive: 0.521.
For B7, the enrichment score was inactive: 1.13.
For B8, the enrichment score was inactive: 1.21.
For B9, the enrichment score was inactive: 0.931.
B10 was tested, and the enrichment score was inactive: 0.875.
B11 was tested, and the enrichment score was inactive: 0.663.
With B12 the enrichment score was inactive: 0.561.
With B13 the enrichment score was inactive: 0.526.
In the case of B14, the enrichment score is reported as inactive: 0.528.
In the case of B15, the enrichment score is reported as inactive: 1.54.
B16 was tested, and the enrichment score was inactive: 2.56.
In the case of B17, the enrichment score is reported as active: 4.3.
For B18, the enrichment score was inactive: 0.371.
B19 was tested, and the enrichment score was inactive: 1.04.

The binders below were run against SHP2 N-SH2 domain T42A in the same assay as above. Settings: peptide library: pTyr-Var.
With B1 the enrichment score was inactive: 0.297.
In the case of B2, the enrichment score is reported as inactive: 0.771.
For B3, the enrichment score was inactive: 0.971.
With B4 the enrichment score was inactive: 0.5.
For B5, the enrichment score was active: 6.74.
For B6, the enrichment score was inactive: 0.505.
For B7, the enrichment score was inactive: 0.984.
In the case of B8, the enrichment score is reported as inactive: 1.05.
With B9 the enrichment score was inactive: 0.954.
B10 was tested, and the enrichment score was inactive: 0.61.
In the case of B11, the enrichment score is reported as inactive: 0.407.
In the case of B12, the enrichment score is reported as inactive: 0.634.
B13 was tested, and the enrichment score was inactive: 0.522.
In the case of B14, the enrichment score is reported as inactive: 0.532.
With B15 the enrichment score was inactive: 1.65.
In the case of B16, the enrichment score is reported as inactive: 2.26.
With B17 the enrichment score was active: 4.1.
With B18 the enrichment score was inactive: 0.218.
B19 was tested, and the enrichment score was inactive: 0.677.

What follows are binders tested against SHP2 N-SH2 domain T52S in the same assay as above. Settings: peptide library: pTyr-Var.
In the case of B1, the enrichment score is reported as inactive: 0.275.
For B2, the enrichment score was inactive: 0.888.
For B3, the enrichment score was inactive: 1.32.
For B4, the enrichment score was inactive: 0.752.
In the case of B5, the enrichment score is reported as inactive: 2.44.
For B6, the enrichment score was inactive: 0.548.
In the case of B7, the enrichment score is reported as inactive: 0.996.
For B8, the enrichment score was inactive: 1.37.
B9 was tested, and the enrichment score was inactive: 1.02.
B10 was tested, and the enrichment score was inactive: 0.624.
In the case of B11, the enrichment score is reported as inactive: 0.497.
For B12, the enrichment score was inactive: 0.62.
With B13 the enrichment score was inactive: 0.449.
For B14, the enrichment score was inactive: 0.593.
With B15 the enrichment score was inactive: 1.84.
B16 was tested, and the enrichment score was inactive: 2.72.
B17 was tested, and the enrichment score was active: 5.92.
For B18, the enrichment score was inactive: 0.506.
For B19, the enrichment score was inactive: 0.957.

What follows are binders tested against SHP2 N-SH2 domain wild-type in the same assay as above. Settings: peptide library: pTyr-Var.
With B1 the enrichment score was inactive: 0.402.
With B2 the enrichment score was inactive: 0.898.
In the case of B3, the enrichment score is reported as inactive: 1.21.
B4 was tested, and the enrichment score was inactive: 0.879.
For B5, the enrichment score was inactive: 1.01.
B6 was tested, and the enrichment score was inactive: 0.643.
With B7 the enrichment score was inactive: 1.3.
B8 was tested, and the enrichment score was inactive: 1.27.
For B9, the enrichment score was inactive: 1.02.
With B10 the enrichment score was inactive: 1.21.
B11 was tested, and the enrichment score was inactive: 0.745.
With B12 the enrichment score was inactive: 0.682.
In the case of B13, the enrichment score is reported as inactive: 0.523.
For B14, the enrichment score was inactive: 0.643.
With B15 the enrichment score was inactive: 1.83.
In the case of B16, the enrichment score is reported as inactive: 2.71.
B17 was tested, and the enrichment score was active: 4.5.
For B18, the enrichment score was inactive: 0.376.
With B19 the enrichment score was inactive: 0.921.
